The list shows a part of the results.

In a collection of fitness landscapes (doi:10.1126/science.1257360) one finds enrichment ratio data, which are given here for 195 variants.

To fix the notation:
B1: PhoQ; a variant is named by its letters at X, in order, P23837 (parent)
chain: MKKLLRLFFPLSLRVRFLLATAAVVLVLSLAYGMVALIGYSVSFDKTTFRLLRGESNLFYTLAKWENNKLHVELPENIDKQSPTMTLIYDENGQLLWAQRDVPWLMKMIQPDWLKSNGFHEIEADVNDTSLLLSGDHSIQQQLQEVREDDDDAEMTHSVAVNVYPATSRMPKLTIVVVDTIPVELKSSYMVWSWFIYVLSANLLLVIPLLWVAAWWSLRPIEALAKEVRELEEHNRELLNPATTRELTSLVRNLNRLLKSERERYDKYRTTLTDLTHSLKTPLXXLQXXLRSLRSEKMSVSDAEPVMLEQISRISQQIGYYLHRASMRGGTLLSRELHPVAPLLDNLTSALNKVYQRKGVNISLDISPEISFVGEQNDFVEVMGNVLDNACKYCLEFVEISARQTDEHLYIVVEDDGPGIPLSKREVIFDRGQRVDTLRPGQGVGLAVAREITEQYEGKIVAGESMLGGARMEVIFGRQHSAPKDE

The experiment covers variants of B1. Description: enrichment ratio after two sorts for PhoP signalling (ratio (wild type AVST 3.29)); higher = more functional. To be noted: with PhoP (E. coli).
MRRS: the enrichment ratio was not above 0.25. To IIQP belongs not above 0.25; to FIEG, 5.56. To MQAP belongs not above 0.25. The figure for MEGT is not above 0.25; for LSFH it is 0.483. With YCKL, the enrichment ratio is not above 0.25. To IPNG belongs not above 0.25; to YMGE, not above 0.25. Regarding TDCP, the enrichment ratio is not above 0.25. The figure for IPMD is not above 0.25. The figure for VPLG is not above 0.25; for PLPS it is not above 0.25; for IKYH it is not above 0.25. The figure for WQRC is not above 0.25; for YKDM it is not above 0.25. With HVFD, the enrichment ratio was not above 0.25. The figure for LYGI is not above 0.25; for WPLH it is not above 0.25; for KHRQ it is not above 0.25. The figure for ESAY is not above 0.25. To FWRE belongs not above 0.25; to HIIL, not above 0.25; to KHDR, not above 0.25. For YATG, the enrichment ratio is not above 0.25. The figure for TVNV is 2.21; for DGFL it is not above 0.25; for PFIH it is not above 0.25. The figure for YTIN is not above 0.25; for EKHI it is not above 0.25. On to NVVW, for which the enrichment ratio was not above 0.25. The figure for LVPG is not above 0.25; for MMWA it is not above 0.25.

Consider TPVR, for which the enrichment ratio was not above 0.25. To RFIV belongs not above 0.25; to GVWR, not above 0.25; to NLWR, not above 0.25. The figure for SRKT is not above 0.25; for TVCN it is 26.1.

As for NMFG, the enrichment ratio was not above 0.25.

With RWIL, the enrichment ratio was not above 0.25.

On to HAST, for which the enrichment ratio is not above 0.25. Consider PMME, for which the enrichment ratio is not above 0.25. To QRHN belongs not above 0.25. Regarding AYAN, the enrichment ratio is not above 0.25. To TYAM belongs 1.1. To WCFQ belongs not above 0.25; to LDKT, not above 0.25; to MGVD, not above 0.25.

Take RYYP: the enrichment ratio was not above 0.25. ILRD: the enrichment ratio is not above 0.25. The figure for HKQY is not above 0.25. The figure for LITM is not above 0.25. To QPKS belongs not above 0.25. With DCIF, the enrichment ratio is not above 0.25. Regarding QLRN, the enrichment ratio was not above 0.25.

YSMF: the enrichment ratio amounted to 0.959. To RTWN belongs not above 0.25; to TLHD, not above 0.25; to MFCH, not above 0.25. With HLTP, the enrichment ratio is not above 0.25. The figure for TERC is not above 0.25; for TGAI it is 12.3; for GGLV it is 13.7.

In the case of ITFR, the enrichment ratio was not above 0.25. To GNPM belongs not above 0.25.

As to EVAT, the enrichment ratio was not above 0.25. Consider MDGC, for which the enrichment ratio was not above 0.25. To HRET belongs not above 0.25; to KNQS, not above 0.25. To MNPE belongs not above 0.25; to VVYM, not above 0.25; to AELC, 9.07. As to LPTD, the enrichment ratio was not above 0.25. In the case of KFTG, the enrichment ratio was not above 0.25. For VGKA, the enrichment ratio is not above 0.25. Take HPWT: the enrichment ratio was not above 0.25. As for FTIM, the enrichment ratio was determined as 7.77. With TNWE, the enrichment ratio is not above 0.25. To ALWV belongs not above 0.25; to MNHM, not above 0.25.

With FHFQ, the enrichment ratio is not above 0.25.

KHST: the enrichment ratio was not above 0.25.

For INRK, the enrichment ratio was not above 0.25. To RACY belongs not above 0.25; to WRVP, not above 0.25.

On to IPCE, for which the enrichment ratio was not above 0.25.

With VLSG, the enrichment ratio was not above 0.25.

Consider ICTG, for which the enrichment ratio is not above 0.25. The figure for DHNC is not above 0.25; for IENW it is not above 0.25; for ANGV it is 10.9. The figure for DDRP is not above 0.25; for NKPW it is not above 0.25. To EPLV belongs not above 0.25; to GYER, not above 0.25. On to HLVN, for which the enrichment ratio was not above 0.25. To WVLL belongs not above 0.25; to SDEK, not above 0.25. To VMQA belongs not above 0.25; to MLER, not above 0.25. To HMFW belongs not above 0.25. With KDWF, the enrichment ratio was not above 0.25. The figure for FMPT is not above 0.25; for NYLV it is not above 0.25; for PTET it is not above 0.25. To QGPN belongs not above 0.25; to WWPH, not above 0.25; to DYWL, not above 0.25. The figure for VMQF is not above 0.25; for PHNM it is not above 0.25; for TAQY it is not above 0.25.

For HQAA, the enrichment ratio is not above 0.25. To PHNR belongs not above 0.25. To KKPH belongs not above 0.25; to NDVQ, not above 0.25. To RYSF belongs not above 0.25; to LTDV, not above 0.25. Consider GDRC, for which the enrichment ratio was not above 0.25. The figure for QDVY is not above 0.25; for KCLP it is 1.04; for TPMY it is not above 0.25. The figure for RDQK is not above 0.25; for YETL it is not above 0.25. As to YVTA, the enrichment ratio stood at 0.38.

With RQLL, the enrichment ratio is not above 0.25.

With SHIV, the enrichment ratio was not above 0.25. For RALN, the enrichment ratio was not above 0.25. To WCHV belongs not above 0.25. The figure for MTHR is not above 0.25; for PIQV it is not above 0.25.

PGVT: the enrichment ratio is not above 0.25.

For QQHY, the enrichment ratio turned out to be 21.2. The figure for DAMN is not above 0.25.

Turning to QKQA, the enrichment ratio is not above 0.25. To DLYW belongs not above 0.25; to PCKA, not above 0.25; to GYQQ, not above 0.25. The figure for WFRA is not above 0.25. To PAGQ belongs not above 0.25. With VDPN, the enrichment ratio was not above 0.25.

ILTR: the enrichment ratio is not above 0.25. To QGGN belongs 14.7; to WHRW, not above 0.25; to IHRA, not above 0.25. To QQNN belongs not above 0.25; to YMTN, not above 0.25. The figure for VKHA is not above 0.25; for YFND it is not above 0.25. For NEPM, the enrichment ratio was not above 0.25.

Take KLLY: the enrichment ratio was not above 0.25. The figure for ARQH is not above 0.25; for MAHF it is 9.56. The figure for RCQK is not above 0.25; for DIDN it is not above 0.25; for FVFY it is not above 0.25. The figure for SKEC is not above 0.25. Regarding EMCS, the enrichment ratio was not above 0.25. For the variant RKRK, the enrichment ratio was not above 0.25.

As for DWIT, the enrichment ratio is not above 0.25. For MPPE, the enrichment ratio was not above 0.25. The figure for ECGH is not above 0.25; for DYGM it is not above 0.25. The figure for SRFN is not above 0.25.

As for RFNC, the enrichment ratio is not above 0.25. PCRN: the enrichment ratio was not above 0.25. The figure for MIWK is 8.54; for MACM it is not above 0.25; for KKKT it is not above 0.25. The figure for CRSF is not above 0.25. The figure for QFIA is not above 0.25; for QMVH it is not above 0.25; for IYVM it is not above 0.25. As for LWTD, the enrichment ratio was not above 0.25. Turning to HSAR, the enrichment ratio was not above 0.25.

Take DNTT: the enrichment ratio was not above 0.25.

Turning to TDNC, the enrichment ratio was found to be 13.4. The figure for SIND is 2.97; for PIFP it is not above 0.25.

For SCHQ, the enrichment ratio was not above 0.25. Take EQHH: the enrichment ratio is not above 0.25.

Take NIPY: the enrichment ratio is not above 0.25. To MIMM belongs not above 0.25; to TTIQ, 0.626; to EYHP, not above 0.25. MPFH: the enrichment ratio was not above 0.25. To WEPA belongs not above 0.25; to LFML, not above 0.25; to MPED, not above 0.25. As for PTHW, the enrichment ratio was not above 0.25. To LEIR belongs 0.352. To VPMA belongs not above 0.25; to VTHP, not above 0.25. On to NMYT, for which the enrichment ratio was not above 0.25. WSGN: the enrichment ratio is not above 0.25.
